Test results as given in PubChem BioAssay AID1240 (Sanford-Burnham Center for Chemical Genomics, 2008).
Screen size: about 50,000 compounds; about 800 (1.6%) showed an effect of 50% or more. The list shows a part of the results.

These compounds were tested against Bcl-2-like protein 10 (Homo sapiens) (UniProt Q9HD36) (assay: TR3 peptide-Bcl-B binding displacers, biochemical primary FP assay, phenotype converters (AID 1240;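 also: 0% = Bcl-B with tracer peptide and DMSO and 100% = tracer peptide lacking Bcl-B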)). Conditions: GST-Bcl-B / FITC-TR3 peptide fluorescence polarization; stronger effect = higher value; compound at 3.75 mg/L.
Chain of UniProt Q9HD36 (Q9HD36 whole entry, looked up): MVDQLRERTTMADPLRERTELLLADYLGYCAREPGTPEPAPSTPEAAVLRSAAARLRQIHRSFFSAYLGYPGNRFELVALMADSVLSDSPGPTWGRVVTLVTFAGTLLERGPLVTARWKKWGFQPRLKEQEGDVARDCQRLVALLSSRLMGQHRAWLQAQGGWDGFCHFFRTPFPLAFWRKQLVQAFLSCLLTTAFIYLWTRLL
With `COc1ccc(N2C(=O)S/C(=C/c3cccc(Br)c3)C2=O)cc1` the displacement was 10.3%.
`CN(C)c1cccc(C(=O)N2CCN(c3ccc(F)cc3)CC2)c1` was tested, and the displacement was 9%.
Compound `CC(=O)C(=Nc1ccc(C)cc1C)NNc1ccc(Cl)c(C(N)=O)c1` has a displacement of 0.8%.
In the case of `CCC1C(=O)N=C(SCC(=O)Nc2nc(-c3ccccc3)cs2)NC1=O` (stereo not given), the displacement is reported as 10.1%.
For `O=C(Nc1cccnc1)c1ccccc1[N+](=O)[O-]`, the displacement was 2.4%.
For `COc1cc(/C=C2\SC(=S)N(NC(C)=O)C2=O)cc(OC)c1OC`, the displacement was -16.7%.
Compound `Brc1ccc(Nc2nc(-c3ccncc3)nc3ccccc23)cc1` has a displacement of 44.4%.
`O=C(c1ccc(-c2ccccc2)cc1)N1CCN(Cc2ccncc2)CC1` gave a displacement of 2.7%.
`O=C(CCc1ccccc1)NC1CCCCC1Cc1ccco1` (stereo not given) showed a displacement of -1.2%.
`CN(C)c1ccc(C(O)Cc2nc3ccccc3n2C)cc1` (stereo not given) showed a displacement of -0.8%.
Compound `CCOc1ccc(C2=C/C(=C/c3ccc(N(C)C)cc3)C(=O)O2)cc1` has a displacement of 3.3%.
In the case of `COc1ccc(N(CC(=O)Nc2ccc(C(C)C)cc2)S(=O)(=O)c2ccc(C)cc2)c(OC)c1`, the displacement is reported as 11.8%.
Work on `O=C(/C=C/c1ccco1)Nc1cc(Cl)cc(Cl)c1` yielded a displacement of -3.2%.
`O=C(CCN1C(=O)/C(=C/c2cccs2)SC1=S)Nc1nc2ccccc2s1` gave a displacement of 10.5%.
`CCOC(=O)COc1ccccc1/C=C1\C(=O)NC(=O)N(c2ccc(Cl)cc2)C1=O` showed a displacement of -7.2%.
For `O=C1C(=Cc2ccccc2Br)C(=O)c2ccccc21`, the displacement was 18.1%.
For `CCC(C(=O)OC)S(=O)(=O)c1ccc(Cl)cc1` (stereo not given), the displacement was 0%.
With `COc1cccc(C2C3=C(CC(C)(C)CC3=O)OC3=C2C(=O)CC(C)(C)C3)c1OCC(=O)O` the displacement was 12.3%.
`Cc1ccc(OCC(=O)NNC(=O)c2ccc(O)cc2O)c(C)c1` was tested, and the displacement was -11.3%.
`C/C(=N/OCC(=O)N/N=C/c1ccccc1NS(=O)(=O)c1ccc(C)cc1)c1ccccc1` showed a displacement of 5%.
Work on `COC(=O)c1cccc(-n2c(C)ccc2-c2ccccc2)c1` yielded a displacement of -15.6%.
`O=C1CCCC2=C1C(c1ccc(F)cc1)C1=C(CCCC1=O)O2` gave a displacement of 11.2%.
Compound `CC1=C(C(=O)OCC2CCCO2)C(c2cccc([N+](=O)[O-])c2)NC(=O)N1` (stereo not given) has a displacement of -3.4%.
`O=C(CSc1nnnn1-c1ccccc1)Nc1ccccc1Br` showed a displacement of -1.9%.
Compound `O=C1C(=O)N(CC2CCCO2)C(c2ccc([N+](=O)[O-])cc2)/C1=C(/O)c1ccccc1` (stereo not given) has a displacement of 6.5%.
`CCOC(=O)c1c(C)oc2ccc(OC(=O)C(C)C)cc12` gave a displacement of 6.2%.
`COc1ccc(C2(CC(=O)Nc3ccc(Br)cc3)C(=O)c3ccccc3C2=O)cc1` showed a displacement of -12.9%.
In the case of `O=C1NC(=O)N(c2ccc(Cl)cc2)C(=O)/C1=C/c1cc(Br)c(O)c([N+](=O)[O-])c1`, the displacement is reported as 14.7%.
Work on `COC(=O)c1ccc(/C=C2\C(=O)NC(=O)N(c3ccc(Br)cc3)C2=O)cc1` yielded a displacement of -14.7%.
Compound `COc1ccc(/C=N/n2cnnc2)cc1COc1ccccn1` has a displacement of 12.7%.
For `Cc1cccc(N2C(=O)C(=O)/C(=C(/O)c3ccccc3)C2c2ccccc2)n1` (stereo not given), the displacement was 10.8%.
For `CON(C)c1nc(OCCNC(=O)COc2ccc(Cl)cc2C)nc(N(C)C)n1`, the displacement was -7.4%.
`COC(=O)c1ccc(/C=C/C(=O)c2ccc(F)cc2)cc1` gave a displacement of -1.9%.
Work on `O=C(CCN1C(=O)/C(=C/c2cccs2)SC1=S)Nc1cccnc1` yielded a displacement of 135%.
`O=C(O)c1ccc(C(=O)O)c(C(=O)NCCc2ccccc2)c1` gave a displacement of 13.8%.
In the case of `COc1ccc(CNC(=O)C(=O)Nc2ccccc2C)cc1`, the displacement is reported as 5.8%.
`Cc1ccc(Cl)cc1NC(=O)c1cnccn1` gave a displacement of 29%.
Compound `C=CCc1cccc2cc(C(=O)N(Cc3ccccc3)Cc3ccccc3)c(=O)oc12` has a displacement of -2.6%.
Compound `COc1cc(OC)c(OC)cc1CN1CCN(C2CCCCCC2)CC1` has a displacement of -3.5%.
In the case of `O=C(Nc1cccc(Cl)c1)c1cccc(NC(=S)Nc2ccccc2)c1`, the displacement is reported as -8%.
`CCOC(=O)c1ccc2c(c1)c1c(n2CC)C(=O)CCC1` showed a displacement of 9%.
With `CC(=O)N1CC[C@@]2(O)CCCC[C@@H]2[C@H]1c1ccccc1` the displacement was -14.4%.
`Cc1ccc(S(=O)(=O)NCCNc2cc(Cl)ccc2[N+](=O)[O-])cc1` showed a displacement of 7.8%.
`CCc1cc2c3c(c(=O)oc2cc1O)CCCC3` showed a displacement of -5.8%.
`COc1cccc(C2NC(=S)NC(C)=C2C(=O)Nc2ccccc2C)c1OC` (stereo not given) was tested, and the displacement was 3.2%.
Work on `CN(C)c1ccc(/C=N/Nc2ccc(C(F)(F)F)cn2)cc1` yielded a displacement of 1.7%.
Work on `CCCS(=O)(=O)c1c(S(=O)(=O)CCC)c2cc(-c3ccncc3)ccn2c1C(=O)c1ccc(OC)cc1` yielded a displacement of 6.6%.
Work on `O=c1oc2cc(OC/C=C/c3ccccc3)ccc2c2ccccc12` yielded a displacement of 9.1%.
`COC(=O)c1c(-c2ccc(C)c(C)c2)csc1N` showed a displacement of 13.9%.
For `O=C1OC(Nc2cccc(Br)c2)(c2ccccc2)c2ccccc21` (stereo not given), the displacement was 6.8%.
`O=C(NCc1ccccc1)c1ccc(CN2CCN(Cc3ccccc3)CC2)cc1` showed a displacement of 10%.
`CCOc1ccccc1NC(=O)C(=O)NCCCO` gave a displacement of -10.9%.
For `O=C(O)CCCN1C(=O)C(=O)/C(=C(/O)c2ccccc2)C1/C=C/c1ccccc1` (stereo not given), the displacement was 2.1%.
For `O=C(NN1C(=O)/C(=C/c2ccc([N+](=O)[O-])cc2)SC1=S)c1ccccc1Cl`, the displacement was 9.3%.
Compound `CNc1nc2ccc(C)cn2c(=O)c1/C=N/O` has a displacement of 11%.
